Results reported in PubChem BioAssay AID2675 (National Center for Advancing Translational Sciences (NCATS), 2010).
In all, about 280,000 compounds went through this assay and about 100 (0.036%) were called active. The inconclusive results got no clear call from the source; some entries with a clear call stand among them for comparison. The call rests on the fitted dose curve; in most records, active means well fitted inhibition curve with a large enough effect in the signal ratio, with a control signal flat (not every such curve was filed as active); inconclusive means small, poorly fitted or top-dose-only effect, or effect the other way, or a change in a side signal; inactive means no such curve, though single readings can be large or run the other way; the % refers to the signal ratio. Where the call is inconclusive, the potency comes from a doubtful curve fit. “Side channel” marks fits to a control or component signal instead of the main read-out.

target: Muscleblind-like protein 1 (Homo sapiens) (UniProt Q9NR56); test: qHTS Assay for Inhibitors of MBNL1-poly(CUG) RNA binding; settings: TR-FRET MBNL1-His/biotin-(CUG)12 binding, 665/545 ratio; activity change, negative = inhibition: at 57.5 µM (top of the series)
Chain of UniProt Q9NR56 (Q9NR56 whole entry, looked up): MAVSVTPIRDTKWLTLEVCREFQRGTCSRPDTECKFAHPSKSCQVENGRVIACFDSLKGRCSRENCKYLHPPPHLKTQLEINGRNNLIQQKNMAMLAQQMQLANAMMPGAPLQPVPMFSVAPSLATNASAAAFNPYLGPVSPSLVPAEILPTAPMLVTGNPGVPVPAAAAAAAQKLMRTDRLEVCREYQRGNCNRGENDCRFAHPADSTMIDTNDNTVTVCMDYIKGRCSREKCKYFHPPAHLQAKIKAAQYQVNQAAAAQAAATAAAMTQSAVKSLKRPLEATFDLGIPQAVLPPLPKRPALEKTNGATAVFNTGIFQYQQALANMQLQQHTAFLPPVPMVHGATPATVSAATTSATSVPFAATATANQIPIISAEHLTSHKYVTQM
Summary of the method: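 TR-FRET between His-tagged MBNL1 and biotin-(CUG)12 RNA, detected with Tb anti-His antibody (0.055 ng/ul) and streptavidin-XL665 (5 nM), 60 min at room temperature. Compounds titrated 92 nM to 58 uM; 665/545 nm ratio normalized to buffer and complex controls.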
On the % scale 0 is the no-effect control and ±100 the full control effect; potency means the concentration at half of the fitted maximal effect; tags describe the fitted curve by direction and shape or compound fluorescence and quenching.

SMILES | activity change, negative = inhibition | Potency
O=C(Cc1ccccc1[N+](=O)[O-])NC1CC2CCC1C2 (stereo not given) | inactive: 16.3% | –
O=S(=O)(Nc1cc(Sc2ncn[nH]2)c(O)c2ccccc12)c1ccccc1 | – | inconclusive: 14.1 µM [quencher, side channel, partial curve]
Cc1ccccc1C(=O)Nc1c(C(=O)N(CCN(C)C)Cc2ccco2)oc2ccccc12 | inactive: -7.93% | –
Nc1ccc(Sc2cnn(-c3ccccc3)c(=O)c2Cl)cc1 | – | inconclusive: 39.8 µM [quencher, single point]
COc1ccc(C(c2sc3nc(C)nn3c2O)N2CCC(O)CC2)cc1OC (stereo not given) | – | inconclusive: 2.82 µM [quencher, side channel, single point]
CCOCCCNC(=S)N(Cc1ccccc1)Cc1nc2ccccc2c(=O)[nH]1 | inactive: -22.7% | –
O=C1C2C3C=CC(C3)C2C(=O)N1/N=C/c1cc(Br)cc([N+](=O)[O-])c1O (stereo not given) | inactive: 19.4% | –
N/C(Cc1ccc([N+](=O)[O-])cc1)=N\OC(=O)c1ccc2ccccc2c1 | – | inconclusive: 8.91 µM [quencher, side channel, full curve, poor fit]
O=C(Nc1ccccc1F)c1coc(=O)c(Br)c1 | – | inconclusive: 20 µM [quencher, side channel, partial curve]
O=[N+]([O-])c1cccnc1Oc1ccc(F)cc1F | – | inconclusive: 12.6 µM [quencher, side channel, partial curve]
CC1Cc2cc(/C(O)=C3/C(=O)C(=O)N(CCN4CCOCC4)C3c3ccc([N+](=O)[O-])cc3)ccc2O1 (stereo not given) | – | inconclusive: 39.8 µM [quencher, side channel, single point]
CCCc1[nH]n(-c2ccc([N+](=O)[O-])cc2)c(=O)c1C=NCCCn1ccnc1 | – | inconclusive: 17.8 µM [quencher, side channel, partial curve]
COc1ccc(C2CC(c3cccc(OC)c3)n3nc(N)nc3N2)cc1 (stereo not given) | inactive: 4.77% | –
O=[N+]([O-])c1ccccc1S(=O)(=O)n1nnc2ccccc21 | – | inconclusive: 15.8 µM [fluorescent, side channel, single point]
Cn1c(=O)n(C)c2cc(S(=O)(=O)Nc3ccccc3)ccc21 | inactive: -3.44% | –
CC(C)OC(=O)NS(=O)(=O)c1cccc([N+](=O)[O-])c1 | – | inconclusive: 25.1 µM [quencher, side channel, partial curve]
O=C(Nc1ccc(S(=O)(=O)Nc2ccccc2)cc1)c1ccc(CN2CCOCC2)cc1 | inactive: -8.92% | –
O=C(Nc1nccs1)c1ccc2c(c1)C(=O)N(Cc1cccnc1)C2=O | – | inconclusive: 3.98 µM [quencher, side channel, full curve]
Cc1ccc([N+](=O)[O-])c(C(=O)Nc2cccnc2Cl)c1 | – | inconclusive: 14.1 µM [quencher, side channel, partial curve]
Cn1nnnc1Sc1ccc(C(=O)O)cc1[N+](=O)[O-] | – | inconclusive: 14.1 µM [quencher, side channel, partial curve]

SMILES | activity change, negative = inhibition | Potency
CCC(=O)NC(c1ccc(OC)cc1)c1c(O)ccc2ccccc12 (stereo not given) | inactive: 2.49% | –
O=C(CCN1C(=O)/C(=C/c2ccccc2Cl)SC1=S)NCCCN1CCOCC1 | – | inconclusive: 15.8 µM [quencher, partial curve]
COC(=O)c1ccc(/C=C2/SC(=S)N(CCC(=O)NCCCN3CCOCC3)C2=O)cc1 | – | inconclusive: 25.1 µM [quencher, side channel, partial curve, poor fit]
COc1ccccc1C(=O)N/N=C/C(C)=C/c1ccccc1 | – | inconclusive: 17.8 µM [quencher, side channel, partial curve]
Cc1cc(C(=O)Nc2nc(-c3ccccn3)cs2)ccc1[N+](=O)[O-] | inactive: 49% | –
NC(=O)[C@@H]1CCCNc2c(I)cc([N+](=O)[O-])cc2C(=O)N[C@@H](CCC(=O)O)C(=O)N[C@@H](CO)C(=O)N1 | – | inconclusive: 14.1 µM [quencher, partial curve]
CN(Cc1ccccc1)c1ccc(S(=O)(=O)N2CCC(C(=O)O)CC2)cc1[N+](=O)[O-] | – | inconclusive: 31.6 µM [quencher, side channel, single point]
Fc1ccccc1COc1ccc2ccccc2c1CNc1nn[nH]n1 | inactive: 19.1% | –
COc1ccc(/C=C2\CCn3c2nc2cc(C(=O)O)ccc2c3=O)cc1OC | – | inconclusive: 3.55 µM [quencher, side channel, full curve]
Cc1ccc(-c2nc3ncccc3o2)cc1NC(=O)c1ccc([N+](=O)[O-])o1 | – | inconclusive: 3.16 µM [quencher, full curve]
CC(C)NC(=O)c1ccccc1N(Cc1ccccc1)S(C)(=O)=O | inactive: -1.52% | –
Cc1c(Nc2nc(-c3cccc([N+](=O)[O-])c3)cs2)c(=O)n(-c2ccccc2)n1C | – | inconclusive: 12.6 µM [quencher, side channel, partial curve]
Cc1ccc(C2C(C#N)=C(N)Oc3cc4c(cc32)OCO4)cc1 (stereo not given) | – | inconclusive: 20 µM [quencher, side channel, partial curve]
CCOC(=O)C1CCCN(Cc2nc3ccc([N+](=O)[O-])cc3c(=O)n2-c2ccc(OC)cc2OC)C1 (stereo not given) | – | inconclusive: 12.6 µM [quencher, side channel, partial curve]
Cc1occc1C(=O)N1CCN(c2ccc([N+](=O)[O-])cc2)CC1 | – | inconclusive: 17.8 µM [quencher, side channel, partial curve]
O=[N+]([O-])c1ccc(CN2CCN(c3ccc(F)cc3)CC2)o1 | – | inconclusive: 15.8 µM [quencher, side channel, partial curve]
COC(=O)c1ccccc1NC(=O)CSc1nnc(-c2cccnc2)n1N | inactive: -6.83% | –
CCN(CCCNC(=O)CN(C)S(=O)(=O)c1cccc2nsnc12)c1ccccc1 | – | inconclusive: 7.94 µM [quencher, partial curve]
CN(C)c1ccc(C=Nc2ccccc2)cc1 | – | inconclusive: 20 µM [quencher, side channel, partial curve]
O=C(C[n+]1ccc(Cc2ccccc2)cc1)Nc1ccccc1 | – | inconclusive: 15.8 µM [quencher, side channel, partial curve]

SMILES | activity change, negative = inhibition | Potency
O=C(CCCc1c[nH]c2ccccc12)N1CCN(c2ccc(N3CCOCC3)nn2)CC1 | – | inconclusive: 14.1 µM [quencher, side channel, partial curve]
O=[N+]([O-])c1ccc(Oc2cccc(Br)c2)c2ccncc12 | – | inconclusive: 8.91 µM [quencher, side channel, partial curve]
O=C(O)COc1ccc(Br)cc1/C=C1/SC(=O)N(CC(=O)N2CCCC2)C1=O | – | inconclusive: 20 µM [quencher, side channel, partial curve]
CCOCCCNC(=O)COC(=O)/C=C/c1ccc(S(=O)(=O)N2CCc3ccccc32)cc1 | – | inconclusive: 15.8 µM [quencher, side channel, partial curve]
COc1cc(NC(=O)CSc2nccc(=O)[nH]2)c(C)cc1[N+](=O)[O-] | – | inconclusive: 25.1 µM [quencher, side channel, single point]
CC(=O)Nc1ccc(NC(=O)c2cc(=O)c3ccc(C)cc3o2)cc1 | – | inconclusive: 3.55 µM [quencher, side channel, full curve]
CCOc1ccccc1N1Cc2cc(C)c(C)cc2C1 | – | inconclusive: 39.8 µM [quencher, side channel, single point]
Cc1cc(N2CCOCC2)nc2ccc(NC(=S)N3CCN(c4ccccc4)CC3)cc12 | inactive: 9.41% | –
O=C(O)c1ccccc1C(=O)Nc1ccccc1[N+](=O)[O-] | – | inconclusive: 31.6 µM [quencher, side channel, single point]
O=C(NCCN1CCOCC1)c1ccc2c(c1)N(Cc1ccc(F)cc1)C(=O)CS2 | – | inconclusive: 0.316 µM [quencher, side channel, full curve]
CCN(CC)C(=O)CSc1nnc2nnc3cc(C)ccc3n12 | – | inconclusive: 2.51 µM [quencher, side channel, full curve]
Cn1nc([N+](=O)[O-])nc1Oc1ccccc1F | – | inconclusive: 10 µM [quencher, side channel, partial curve]
CC(C)O/N=C1\C(=O)N(c2ccccc2)c2ccccc21 | – | inconclusive: 28.2 µM [quencher, side channel, partial curve]
CCc1nnc(NC(=O)c2ccc(Cl)c(S(=O)(=O)N3CCc4ccccc43)c2)s1 | inactive: 3.27% | –
Cc1ccc(-c2nc3n(n2)Cc2ccccc2-3)cc1 | – | inconclusive: 8.91 µM [quencher, side channel, single point]
C=CCNC(=O)c1ccc2c3n(nc2c1)-c1ccccc1CO3 | – | inconclusive: 15.8 µM [quencher, side channel, partial curve]
COc1ccc(N2C(=O)/C(=C\c3ccco3)N=C2SCC(=O)NC(C)(C)C)cc1Cl | – | inconclusive: 15.8 µM [quencher, side channel, partial curve]
COC(=O)c1ccc(NC(C)C(=O)OC)c([N+](=O)[O-])c1 (stereo not given) | – | inconclusive: 11.2 µM [quencher, side channel, partial curve]
CCS(=O)(=O)Nc1ccc(Cc2ccc(NS(=O)(=O)CC)cc2)cc1 | inactive: -12.1% | –
CSc1nnc2c(n1)OC(C1CC=C(C)CC1)Nc1ccccc1-2 (stereo not given) | – | inconclusive: 10 µM [quencher, partial curve]
